Measurements from patent publication US8586505B2 (SDS Biotech K. K., priority 2009, dated 2013).
Some results were stated once for a whole list of compounds, not compound by compound. For at least one compound, name, drawing or mass did not settle the structure.

Tests used:
Format in all cases: in vivo
Phytophthora infestans = conditions: 125 ppm sample agent solution sprayed on potted tomato plants, 15 ml/pot; inoculated one day after spraying; disease level examined after 1 day in wet chamber at 21° C. and 3 days in greenhouse
Sphaerotheca fuliginea = experiment: Test of examining control effect on Sphaerotheca fuliginea (potted cucumber plants); conditions: 10% wettable powder adjusted to 125 ppm, 15 ml/pot sprayed on potted cucumber plants one day before spray inoculation; assessed after 14 days in greenhouse
Protocol: (§1) Calculation of Preventive Value: Preventive value={(untreated lesion area rate−treated lesion area rate)/untreated lesion area rate}×100
(§2) Using the thus calculated preventive value, the control effect of each compound was determined in accordance with the following standards.
(§3) High control effect: 100%≧preventive value≧60%
(§4) Low control effect: 60%>preventive value≧0%
Using a spray gun, an agent solution prepared by adjusting a 10% wettable powder of each sample compound to 125 ppm (hereinafter referred to as a “sample agent solution”) was sprayed to potted cucumber plants (variety: Sagamihanjiro, 2nd leave stage) in a concentration of 15 ml/pot. One day after the spraying, a conidial suspension of Sphaerotheca fuliginea (conidial concentration: 1.0×10^5 cells/ml) was applied to the plants by spray inoculation. The plants were left in a greenhouse for 14 days, so that they were fully infected with the aforementioned disease. Thereafter, the disease level on each leaf was compared with that on an untreated leaf, and the control effect of each compound was determined in the same manner as in Example 3(1).

[1] = tested on: Pseudoperonospora cubensis; experiment: Test of examining control effect on Pseudoperonospora cubensis (potted cucumber plants); conditions: 10% wettable powder adjusted to 125 ppm, 15 ml/pot sprayed on potted cucumber plants one day before spray inoculation; assessed after 1 day wet chamber and 3 days greenhouse
Protocol: as §1, §2, §3, §4
Using a spray gun, an agent solution prepared by adjusting a 10% wettable powder of each sample compound to 125 ppm (hereinafter referred to as a “sample agent solution”) was sprayed to potted cucumber plants (variety: Sagamihanjiro, 2.5 leave stage) in a concentration of 15 ml/pot. One day after the spraying, a conidial suspension of Pseudoperonospora cubensis (conidial concentration: 1.0×10^4 cells/ml) was applied to the plants by spray inoculation. After completion of the inoculation, the plants were left at 21° C. under wet chamber conditions for 1 day, and were then left in a greenhouse for 3 days, so that they were fully infected with the aforementioned disease. Thereafter, the disease level on each leaf was compared with that on an untreated leaf, and the control effect of each compound was determined in the same manner as in Example 3(1).

CCCCCCC#CCCNc1ncnc2ccccc12 [compound 89]
Determination of control effect (preventive value) (Phytophthora infestans): effect: high (High control effect: 100%≧preventive value≧60%) | Determination of control effect (preventive value) on Sphaerotheca fuliginea (Sphaerotheca fuliginea): effect: high (High control effect: 100%≧preventive value≧60%) | Determination of control effect (preventive value) on Pseudoperonospora cubensis [1]: effect: high (High control effect: 100%≧preventive value≧60%)

CCCCc1ccc(C#CCCNc2ncnc3ccccc23)cc1 [compound 106]
Determination of control effect (preventive value) (Phytophthora infestans): effect: low (Low control effect: 60%>preventive value≧0%) | Determination of control effect (preventive value) on Sphaerotheca fuliginea (Sphaerotheca fuliginea): effect: low (Low control effect: 60%>preventive value≧0%) | Determination of control effect (preventive value) on Pseudoperonospora cubensis [1]: effect: high (High control effect: 100%≧preventive value≧60%)

CCCCCCCc1ccc(-c2ccc(C#CCCNc3ncnc4ccccc34)cc2)cc1 [compound 112]
Determination of control effect (preventive value) (Phytophthora infestans): effect: low (Low control effect: 60%>preventive value≧0%) | Determination of control effect (preventive value) on Sphaerotheca fuliginea (Sphaerotheca fuliginea): effect: low (Low control effect: 60%>preventive value≧0%) | Determination of control effect (preventive value) on Pseudoperonospora cubensis [1]: effect: high (High control effect: 100%≧preventive value≧60%)

CCCCCCc1ccc(C#CCCNc2ncnc3ccccc23)cc1 [compound 107]
Determination of control effect (preventive value) (Phytophthora infestans): effect: high (High control effect: 100%≧preventive value≧60%) | Determination of control effect (preventive value) on Sphaerotheca fuliginea (Sphaerotheca fuliginea): effect: high (High control effect: 100%≧preventive value≧60%) | Determination of control effect (preventive value) on Pseudoperonospora cubensis [1]: effect: high (High control effect: 100%≧preventive value≧60%)

CCCCC#CCCNc1ncnc2ccccc12 [compound 88]
Determination of control effect (preventive value) (Phytophthora infestans): effect: low (Low control effect: 60%>preventive value≧0%) | Determination of control effect (preventive value) on Sphaerotheca fuliginea (Sphaerotheca fuliginea): effect: high (High control effect: 100%≧preventive value≧60%) | Determination of control effect (preventive value) on Pseudoperonospora cubensis [1]: effect: high (High control effect: 100%≧preventive value≧60%)

CCCCC#CCCNc1ncnc2sccc12 [compound 6]
Determination of control effect (preventive value) (Phytophthora infestans): effect: low (Low control effect: 60%>preventive value≧0%) | Determination of control effect (preventive value) on Sphaerotheca fuliginea (Sphaerotheca fuliginea): effect: high (High control effect: 100%≧preventive value≧60%) | Determination of control effect (preventive value) on Pseudoperonospora cubensis [1]: effect: low (Low control effect: 60%>preventive value≧0%)

CCCCCCCCc1ccc(C#CCCNc2ncnc3ccccc23)cc1 [compound 108]
Determination of control effect (preventive value) (Phytophthora infestans): effect: low (Low control effect: 60%>preventive value≧0%) | Determination of control effect (preventive value) on Sphaerotheca fuliginea (Sphaerotheca fuliginea): effect: low (Low control effect: 60%>preventive value≧0%) | Determination of control effect (preventive value) on Pseudoperonospora cubensis [1]: effect: high (High control effect: 100%≧preventive value≧60%)
